Hit rate of the full screen: of about 410,000 compounds, about 5,000 (1.2%) were called active. Inconclusive results, whose numbers are uncertain, are shown with a selection of clear calls. The call rests on the fitted dose curve; in most records, active means well fitted inhibition curve with a large enough effect; inconclusive means small, poorly fitted or top-dose-only effect; inactive means no such curve, though single readings can be large or run the other way. Potencies of inconclusive entries are doubtful fits and often do not repeat.
Experiment: qHTS for Inhibitors of TGF-b; further: nearly all actives have a fitted effect of over 65% in size
Conditions: HepG2 CAGA-GFP TGF-b/SMAD3 reporter, GFP fluorescence, 18 h, TGF-beta stimulated, 500 pg/mL final; series mostly up to 46.1 µM
Method in brief: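 HEPG2 CAGA-GFP, 1000 cells/well; 2 h settle, 37 C; cpd via pin tool; TGF-b 500 pg/mL final; 18 h, 37 C; GFP imaging ex488/em500-530; %Activity normalised to -TGF-b and +DMSO controls; CRC fit, curve class.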
For `CCOC(=O)N1CCN(C(=O)COc2ccc(S(=O)(=O)NC3CCCCC3)cc2C)CC1`, the Potency was inconclusive: 1.78 µM [inhibitor, full curve, poor fit]. For `O=C1C=C(c2ccc3[nH]ccc3c2)C[C@@H](c2ccc(F)cc2)C1`, the Potency was inconclusive: 15.8 µM [inhibitor, single point]. With `COc1ccc(NC(=O)CSc2nnc(-c3ccccc3C)n2N)cc1OC` the Potency was “inactive”. For `COC(=O)/C(=C\Nc1ccc(Cl)cc1Cl)NC(=O)c1ccccc1`, the Potency was inconclusive: 35.5 µM [inhibitor, partial curve, poor fit]. In the case of `Cc1cccc(C)c1NC(=O)CS(=O)(=O)c1nc(-c2ccc(Cl)cc2)cn1-c1ccccc1`, the Potency is reported as inconclusive: 0.501 µM [inhibitor, full curve, poor fit]. With `Cc1oc(-c2ccccc2Cl)nc1CSc1nc2c(c(=O)[nH]1)CCC2` the Potency was “inactive”. With `C/C(=C\C(=O)c1ccc(F)cc1)Nc1ccc(N2CCOCC2)cc1` the Potency was “inactive”. In the case of `CC(C)(C)NC(=O)COC(=O)c1ccccc1Nc1ccc(SC(F)F)cc1`, the Potency is reported as inconclusive: 0.794 µM [inhibitor, full curve, poor fit]. In the case of `CCOc1ccc(C(=O)Nc2ccc3oc(-c4ccc5ccccc5c4)nc3c2)cc1`, the Potency is reported as “inactive”. In the case of `S=C1NC2CCCCC2N1` (stereo not given), the Potency is reported as inconclusive: 2.51 µM [inhibitor, partial curve, poor fit]. With `CCc1ccc(Cn2c(CNS(=O)(=O)c3ccc(C)c(C)c3)nc3cccnc32)cc1` the Potency was inconclusive: 12.6 µM [inhibitor, partial curve]. For `Cn1nc(-c2ccccc2F)c2cc(C(=O)Nc3ccc4c(c3)OCCO4)sc21`, the Potency was “inactive”. In the case of `CCN(CC)CCCn1c2c(c(SCC(=O)Nc3cc(OC)cc(OC)c3)nc1=O)CCC2`, the Potency is reported as “inactive”. In the case of `O=C(N1CCCC1)C12CC3CC(C1)CC(C(=O)N1CCCC1)(C3)C2`, the Potency is reported as inconclusive: 5.62 µM [inhibitor, single point]. With `CC(=O)CCC1C2C(O)C(C(C)C)C(OC(=O)/C=C/c3ccccc3)CC12C` (stereo not given) the Potency was inconclusive: 15.8 µM [inhibitor, single point]. For `COc1ccc(N(CC(=O)NC2CCCCC2)C(=O)CCC(=O)Nc2nc(C)cs2)cc1OC`, the Potency was “inactive”. With `Cc1cc(C)c2nc(Cl)c(CN(Cc3ccco3)C(=O)Nc3ccccc3C)cc2c1` the Potency was inconclusive: 7.08 µM [inhibitor, partial curve]. With `Cc1cccc(NC(=O)CSCC(=O)N(C)Cc2c(F)cccc2Cl)c1` the Potency was “inactive”. For `CC(=O)NNC(=O)c1[nH]c2ccc(Cl)cc2c1-c1ccccc1`, the Potency was inconclusive: 35.5 µM [inhibitor, single point]. With `CCOC(=O)c1c(-c2ccc(C)cc2)csc1NC(=O)CCN1CC(C)OC(C)C1` (stereo not given) the Potency was inconclusive: 22.4 µM [inhibitor, single point]. For `Cc1nn2c(C)c(C(=O)NC(C)(C)C)cnc2c1-c1ccc(F)cc1`, the Potency was inconclusive: 0.112 µM [inhibitor, full curve, poor fit]. With `O=[N+]([O-])c1ccc(N=Nc2c(Cl)cc(O)cc2Cl)cc1` the Potency was active: 1.12 µM. With `CSc1cccc(NC(=S)N2CCCN(Cc3cccc(Cl)c3)C2)c1` the Potency was inconclusive: 35.5 µM [inhibitor, single point]. For `O=C(Nc1cc2c3c(c1)CC(=O)N3CCC2)C1CC1`, the Potency was “inactive”. For `CCCCCCCCCCCCCCC[C@@H](O)[C@@H](N)CO`, the Potency was “inactive”. In the case of `COCCCNC(=O)C(=O)Nc1cc2c3c(c1)CCC(=O)N3CCC2`, the Potency is reported as “inactive”. With `O=C(C1CC1)N1CCC(c2nc(-c3ccc(S(=O)(=O)NCC4CCCO4)cc3)no2)CC1` (stereo not given) the Potency was inconclusive: 22.4 µM [inhibitor, single point]. For `CCOCCCn1c(=S)[nH]c2cc(C(=O)NCCCN(CC)CC)ccc2c1=O`, the Potency was “inactive”. In the case of `COc1ccc(OCC(=O)NCCNC(=O)c2ccccn2)cc1`, the Potency is reported as “inactive”. With `COc1ccc(Cl)cc1NC(=O)CCCN1C(=O)CCC1=O` the Potency was inconclusive: 0.794 µM [inhibitor, full curve, poor fit]. With `COc1cccc(CN(C)C(=O)[C@@H](NC(=O)c2ccc(C)cc2)C(C)C)c1` the Potency was “inactive”. With `Cc1ccc(S(=O)(=O)c2c(O)cc(C)c(NS(=O)(=O)c3ccc(Cl)cc3)c2C)cc1` the Potency was inconclusive: 35.5 µM [inhibitor, single point]. In the case of `Cc1ccc(C)c(-c2nnc(NC(=O)Cc3ccccc3)o2)c1`, the Potency is reported as inconclusive: 6.31 µM [inhibitor, single point]. With `O=C(Cn1c(C(F)(F)F)nc2ccccc21)Nc1ccccc1N1CCOCC1` the Potency was inconclusive: 35.5 µM [inhibitor, partial curve, poor fit]. In the case of `CC(C)Cn1c(N)c(C(=O)NCc2cccs2)c2nc3ccccc3nc21`, the Potency is reported as active: 15.8 µM. In the case of `O=S(=O)(c1cc(Cl)ccc1Cl)N1CCN(Cc2ccc3c(c2)OCO3)CC1`, the Potency is reported as inconclusive: 20 µM [inhibitor, single point]. For `Cc1sc2ncnc(N/N=C/c3ccccc3O)c2c1C`, the Potency was inconclusive: 7.08 µM [inhibitor, partial curve]. With `Clc1ccc(CN2CCCCCCC2)cc1` the Potency was “inactive”. For `CCOc1ccc(-c2nc(N)ncc2Oc2cccc(OC)c2)c(O)c1`, the Potency was “inactive”. In the case of `O=C(O)c1ccc(N2C(=O)CC(SC(=NCc3ccc4c(c3)OCO4)Nc3ccccc3)C2=O)cc1` (stereo not given), the Potency is reported as inconclusive: 1.26 µM [inhibitor, full curve, poor fit]. In the case of `O=c1[nH]c(=O)n([C@H]2C[C@H](O)[C@@H](CO)O2)cc1F`, the Potency is reported as “inactive”. For `COc1ccc(S(=O)(=O)N2CCC(C(=O)Nc3cc(C(F)(F)F)ccc3Cl)CC2)cc1`, the Potency was inconclusive: 35.5 µM [inhibitor, single point]. For `CN(CC(=O)Nc1ccccc1Cl)CC(=O)Nc1sc2c(c1C(N)=O)CCC2`, the Potency was inconclusive: 20 µM [inhibitor, partial curve, poor fit]. With `Cc1cc(C(=O)CSc2nnnn2-c2ccc(O)cc2)c(C)n1Cc1ccc2c(c1)OCO2` the Potency was inconclusive: 12.6 µM [inhibitor, partial curve, poor fit]. In the case of `Cc1ccccc1-c1ccc(C(=O)Nc2cccc(F)c2)o1`, the Potency is reported as “inactive”.

From PubChem BioAssay AID588855 (National Center for Advancing Translational Sciences (NCATS), 2011)
Potency means the concentration at half of the fitted maximal effect; tags describe the fitted curve by direction and shape.
